Values joined by “and” are separate entries in the source; they are usually repeats but may differ in a detail not shown here. Equal entries are not always repeated. Screen size: about 150,000 compounds; about 540 (0.36%) showed an effect of 50% or more. Some of the results follow.
Test system: Plasmodium falciparum
Test: Primary screen in NF54 nanoGlo assay, in single point, at 2uM, 72h; a lower Z score goes with more inhibition
Type: functional, Erythrocyte
Conditions: timepoint 72 hour

SMILES | % Inhibition | Z score | % Inhibition (2 µM)
CC(C)(C)OC(=O)N[C@@H](Cc1ccccc1Cl)C(=O)O | 16% | -1.89 | 
COc1ccc([C@H]2C[C@H]3CC[C@@H](C2)N3C(=O)c2cnn(C(C)C)c2)cc1 | 5% | -0.61 | 
CC(C)[C@H](Cn1ccnc1)NC(=O)CCN1CCCCCCC1 | -12% | 1.65 | 
O=C(Cc1ccc(F)cc1)N1CC(Nc2cnccn2)C1 | -25% | 2.89 | 
Cn1cc(S(=O)(=O)N2CCN(c3cccc(OCc4ccccc4Cl)c3)CC2)cn1 | 1% | -0.12 | 
Cc1ncoc1C(=O)N1CCC[C@H]1c1ncc(C)n1Cc1cccnc1 | -7% | 0.88 | 
CCc1n[nH]c(C(=O)NCC2(CO)COC2)c1Br | 1% | -0.21 | 
COc1ccc(CC(=O)N2CCC(N3CCN(Cc4ccccc4)C(=O)C3=O)CC2)c(Cl)c1 | -15% | 2.02 | 
CN1CCCN(C(=O)c2csnn2)c2cc(F)ccc21 | 8% | -0.97 | 
OCC(CO)n1ccnc1-c1ccc(-n2cccn2)cc1 | -9% | 1.26 | 
O=C(CC1CCCC1)NC1CCN(Cc2cccc3nccn23)CC1 | -1% | 0.18 | 
CN(CCn1cccn1)C(=O)c1onc2c1CCCC2 | -10% | 1.51 | 
Cc1cccc(-c2ccc(C(=O)NCc3nc4ccccc4s3)c(N3CCC(O)CC3)n2)c1 | -9% | 1.34 | 
CCc1ncnc(NCc2c[nH]c(C(C)C)n2)c1F | 0% | 0.08 | 
Cc1cc(C)cc(NC(=O)N2CCC(C)(C(=O)NCc3ccc4c(c3)OCO4)CC2)c1 | -6% | 0.97 | 
O=C(Cn1cccn1)NCc1cccnc1N1CCOCC1 | -3% | 0.47 | 
CCc1[nH]nc(-c2ccccc2OC)c1NC(=O)C1CCCCC1 | -8% | 1.27 | 
Cc1csc(C(=O)N[C@H]2CCn3nccc3C2)c1 | -14% | 2.19 | 
Cc1nnc(CN2CCN(C)CC23CCCCC3)o1 | -6% | 0.86 | 
CNC(=O)CN1CC[C@@](F)(c2cccc(Cl)c2)C1 | -7% | 0.96 | 
CC(C)Nc1cccc(C(F)(F)F)c1 | 4% | -0.58 | 

SMILES | % Inhibition | Z score | % Inhibition (2 µM)
Cc1cc(CNCc2nncn2C(C)C)cc(C)c1OC(F)F | -8% | 1.31 | 
CO[C@@]12CC[C@@H](NC(=O)c3ccccc3)C[C@@H]1N(C(=O)c1nc(C)c[nH]1)CC2 | -2% | 0.33 | 
FC(F)(F)c1ccc(CCNc2cnccn2)nc1 | -27% | 2.87 | 
OCCc1cn(C2CCCC2)nc1C(F)(F)F | 1% | -0.18 | 
N#Cc1ccc(NC(=O)[C@](F)(OC(F)(F)C(F)(F)C(F)(F)F)C(F)(F)F)cc1 | 47% | -6.1 | 
COC[C@H]1[C@@H](NS(=O)(=O)CC(C)C)[C@H]2CCO[C@H]21 | -7% | 1.04 | 
CCN(CC)C[C@H](C)OC(=O)c1cccc(F)c1 | 27% | -3.11 | 
CC1CCN(C(=O)c2ccccc2N2CCC(NC(=O)c3cccc(Cl)c3)CC2)CC1 | -3% | 0.58 | 
CC1(CNC(=O)Nc2ccc(C#N)nc2)COC1 | -2% | 0.21 | 
O=C(Nc1ccc2c(c1)OCCCO2)C1CCCC1 | -13% | 1.74 | 
COc1ccc(CCNC(=O)C[C@@H]2NC(=O)N(c3cccc4ccccc34)C2=O)cc1OC |  |  | -7% and 7%
Cc1ccc(Cn2nnc3cc(C(=O)Nc4cccnc4)ccc32)cc1 | -18% | 1.85 | 
COCCCCN1CCN(C(=O)c2cccc(-c3ccc(C)nc3)c2)CC1 | -16% | 1.88 | 
O=C(c1ccsc1)N1CC[C@@]2(CCCN(Cc3cccc(F)c3F)C2=O)C1 | -9% | 1.25 | 
Cc1ccc(-n2cccc2CC(=O)N(C)Cc2ccccc2)cc1 | -11% | 1.51 | 
Cc1ccc2c(c1)N(S(C)(=O)=O)CC[C@@H](C(=O)N1CCCC1)O2 | 4% | -0.48 | 
Cc1cscc1C(=O)NC[C@@H](C(=O)O)c1ccccc1 | -9% | 1.6 | 
COc1cccc(-c2cc(C(F)(F)F)n3nc(C(=O)Nc4c(C)nn(CC(=O)N5CCCC5)c4C)cc3n2)c1 | 3% | -0.39 | 
Cc1c2c(=O)n(-c3nc4ccccc4s3)n(Cc3ccccc3Cl)c2cc(=O)n1CCc1c[nH]c2ccccc12 | 33% | -3.75 | 
O=C(O)c1ccn2c(C(=O)c3ccc(Cl)cc3)c(-c3ccccc3)cc2c1 | -2% | 0.3 | 
O=C([C@H]1CC(=O)N(c2ccc(F)cc2)C1)N1CC(c2nc(-c3ccccn3)no2)C1 | -1% | 0.14 | 

Reference: ChEMBL document CHEMBL4888484, “Replenishing the malaria drug discovery pipeline: Screening and hit evaluation of the MMV Hit Generation Library 1 (HGL1) against asexual blood stage Plasmodium falciparum ,using a nano luciferase reporter read-out” (2022)
